# Some of the results follow.
# Columns and labels:
# Assay in all cases: glycan array binding signal (z-score within array); higher = stronger binding
# Details in all cases: glycan notation: IUPAC condensed, linker removed
# [1] = target: Gal(b1-4)GlcNAc(b1-3)Gal(b1-4)GlcNAc(b1-2)[Gal(b1-4)GlcNAc(b1-3)Gal(b1-4)GlcNAc(b1-6)]Man(a1-6)[Gal(b1-4)GlcNAc(b1-3)Gal(b1-4)GlcNAc(b1-2)Man(a1-3)]Man(b1-4)GlcNAc(b1-4)GlcNAc
# How it was run: (§1)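 Arrays were curated from the Consortium for Functional Glycomics database, 3228 in total, and kept only where the protein sequence was available. Binding is expressed as a within-array Z-score. This score was averaged across arrays of the same protein sequence at different concentrations or buffers and across linkers, and negative values can be read as non-binding.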
# [2] = target: Gal(b1-4)GlcNAc(b1-3)Gal(b1-4)GlcNAc(b1-2)[Gal(b1-4)GlcNAc(b1-3)Gal(b1-4)GlcNAc(b1-6)]Man(a1-6)[Gal(b1-4)GlcNAc(b1-3)Gal(b1-4)GlcNAc(b1-2)Man(a1-3)]Man(b1-4)GlcNAc(b1-4)[Fuc(a1-6)]GlcNAc
# How it was run: as §1
# [3] = target: Gal(b1-4)GlcNAc(b1-3)Gal(b1-4)GlcNAc(b1-3)Gal(b1-4)GlcNAc
# How it was run: as §1
# [4] = target: Gal(b1-4)GlcNAc(b1-3)Gal(b1-4)GlcNAc(b1-3)Gal(b1-4)GlcNAc(b1-2)Man(a1-3)[Gal(b1-4)GlcNAc(b1-3)Gal(b1-4)GlcNAc(b1-3)Gal(b1-4)GlcNAc(b1-2)Man(a1-6)]Man(b1-4)GlcNAc(b1-4)GlcNAc
# How it was run: as §1
# [5] = target: Gal(b1-4)GlcNAc(b1-3)Gal(b1-4)GlcNAc(b1-3)Gal(b1-4)GlcNAc(b1-2)Man(a1-3)[Gal(b1-4)GlcNAc(b1-3)Gal(b1-4)GlcNAc(b1-3)Gal(b1-4)GlcNAc(b1-2)Man(a1-6)]Man(b1-4)GlcNAc(b1-4)[Fuc(a1-6)]GlcNAc
# How it was run: as §1
# [6] = target: Gal(b1-4)GlcNAc(b1-3)Gal(b1-4)GlcNAc(b1-3)Gal(b1-4)GlcNAc(b1-2)[Gal(b1-4)GlcNAc(b1-3)Gal(b1-4)GlcNAc(b1-3)Gal(b1-4)GlcNAc(b1-6)]Man(a1-6)[Gal(b1-4)GlcNAc(b1-3)Gal(b1-4)GlcNAc(b1-3)Gal(b1-4)GlcNAc(b1-2)Man(a1-3)]Man(b1-4)GlcNAc(b1-4)[Fuc(a1-6)]GlcNAc
# How it was run: as §1
# [7] = target: Gal(b1-4)GlcNAc(b1-3)Gal(b1-4)GlcNAc(b1-3)Gal(b1-4)GlcNAc(b1-3)Gal(b1-4)GlcNAc(b1-2)Man(a1-3)[Gal(b1-4)GlcNAc(b1-3)Gal(b1-4)GlcNAc(b1-3)Gal(b1-4)GlcNAc(b1-3)Gal(b1-4)GlcNAc(b1-2)Man(a1-6)]Man(b1-4)GlcNAc(b1-4)GlcNAc
# How it was run: as §1
# [8] = target: Gal(b1-4)GlcNAc(b1-3)Gal(b1-4)GlcNAc(b1-3)Gal(b1-4)GlcNAc(b1-3)Gal(b1-4)GlcNAc(b1-2)Man(a1-3)[Gal(b1-4)GlcNAc(b1-3)Gal(b1-4)GlcNAc(b1-3)Gal(b1-4)GlcNAc(b1-3)Gal(b1-4)GlcNAc(b1-2)Man(a1-6)]Man(b1-4)GlcNAc(b1-4)[Fuc(a1-6)]GlcNAc
# How it was run: as §1
# [9] = target: Gal(b1-4)GlcNAc(b1-3)Gal(b1-4)GlcNAc(b1-3)Gal(b1-4)GlcNAc(b1-3)Gal(b1-4)GlcNAc(b1-2)[Gal(b1-4)GlcNAc(b1-3)Gal(b1-4)GlcNAc(b1-3)Gal(b1-4)GlcNAc(b1-3)Gal(b1-4)GlcNAc(b1-6)]Man(a1-6)[Gal(b1-4)GlcNAc(b1-3)Gal(b1-4)GlcNAc(b1-3)Gal(b1-4)GlcNAc(b1-3)Gal(b1-4)GlcNAc(b1-2)Man(a1-3)]Man(b1-4)GlcNAc(b1-4)[Fuc(a1-6)]GlcNAc
# How it was run: as §1
# [10] = target: Gal(b1-4)GlcNAc(b1-3)Gal(b1-4)GlcNAc(b1-3)Gal(b1-4)GlcNAc(b1-3)Gal(b1-4)GlcNAc(b1-3)Gal(b1-4)GlcNAc(b1-2)Man(a1-3)[Gal(b1-4)GlcNAc(b1-3)Gal(b1-4)GlcNAc(b1-3)Gal(b1-4)GlcNAc(b1-3)Gal(b1-4)GlcNAc(b1-3)Gal(b1-4)GlcNAc(b1-2)Man(a1-6)]Man(b1-4)GlcNAc(b1-4)GlcNAc
# How it was run: as §1
# [11] = target: Gal(b1-4)GlcNAc(b1-3)Gal(b1-4)GlcNAc(b1-3)Gal(b1-4)GlcNAc(b1-3)Gal(b1-4)GlcNAc(b1-3)Gal(b1-4)GlcNAc(b1-2)Man(a1-3)[Gal(b1-4)GlcNAc(b1-3)Gal(b1-4)GlcNAc(b1-3)Gal(b1-4)GlcNAc(b1-3)Gal(b1-4)GlcNAc(b1-3)Gal(b1-4)GlcNAc(b1-2)Man(a1-6)]Man(b1-4)GlcNAc(b1-4)[Fuc(a1-6)]GlcNAc
# How it was run: as §1
# [12] = target: Gal(b1-4)GlcNAc(b1-3)Gal(b1-4)GlcNAc(b1-3)Gal(b1-4)GlcNAc(b1-3)Gal(b1-4)GlcNAc(b1-3)Gal(b1-4)GlcNAc(b1-2)[Gal(b1-4)GlcNAc(b1-3)Gal(b1-4)GlcNAc(b1-3)Gal(b1-4)GlcNAc(b1-3)Gal(b1-4)GlcNAc(b1-3)Gal(b1-4)GlcNAc(b1-6)]Man(a1-6)[Gal(b1-4)GlcNAc(b1-3)Gal(b1-4)GlcNAc(b1-3)Gal(b1-4)GlcNAc(b1-3)Gal(b1-4)GlcNAc(b1-3)Gal(b1-4)GlcNAc(b1-2)Man(a1-3)]Man(b1-4)GlcNAc(b1-4)[Fuc(a1-6)]GlcNAc
# How it was run: as §1
# [13] = target: Gal(b1-4)GlcNAc(b1-3)Gal(b1-4)GlcNAc(b1-3)Gal(b1-4)GlcNAc(b1-3)Gal(b1-4)GlcNAc(b1-3)Gal(b1-4)GlcNAc(b1-3)Gal(b1-4)GlcNAc(b1-2)Man(a1-3)[Gal(b1-4)GlcNAc(b1-3)Gal(b1-4)GlcNAc(b1-3)Gal(b1-4)GlcNAc(b1-3)Gal(b1-4)GlcNAc(b1-3)Gal(b1-4)GlcNAc(b1-3)Gal(b1-4)GlcNAc(b1-2)Man(a1-6)]Man(b1-4)GlcNAc(b1-4)GlcNAc
# How it was run: as §1
# [14] = target: Gal(b1-4)GlcNAc(b1-3)Gal(b1-4)GlcNAc(b1-3)GalNAc
# How it was run: as §1
# [15] = target: Gal(b1-4)GlcNAc(b1-3)Gal(b1-4)GlcNAc(b1-3)[Gal(b1-4)GlcNAc(b1-3)Gal(b1-4)GlcNAc(b1-6)]GalNAc
# How it was run: as §1
# [16] = target: Gal(b1-4)GlcNAc(b1-3)Gal(b1-4)GlcNAc(b1-6)[Gal(b1-3)]GalNAc
# How it was run: as §1
# [17] = target: Gal(b1-4)GlcNAc(b1-3)Gal(b1-4)[Fuc(a1-3)]GlcNAc(b1-3)Gal(b1-4)[Fuc(a1-3)]GlcNAc
# How it was run: as §1
# [18] = target: Gal(b1-4)GlcNAc(b1-3)GalNAc
# How it was run: as §1
# [19] = target: Gal(b1-4)GlcNAc(b1-3)[Fuc(a1-3)GlcNAc(b1-6)]Gal(b1-4)Glc
# How it was run: as §1
# [20] = target: Gal(b1-4)GlcNAc(b1-3)[Gal(b1-4)GlcNAc(b1-6)]Gal(b1-4)GlcNAc
# How it was run: as §1
# [21] = target: Gal(b1-4)GlcNAc(b1-3)[GlcNAc(b1-6)]Gal(b1-4)GlcNAc
# How it was run: as §1
# [22] = target: Gal(b1-4)GlcNAc(b1-6)Gal(b1-4)GlcNAc
# How it was run: as §1
# [23] = target: Gal(b1-4)GlcNAc(b1-6)GalNAc
# How it was run: as §1
# [24] = target: Gal(b1-4)GlcNAc(b1-6)[Gal(b1-3)]GalNAc
# How it was run: as §1
# [25] = target: Gal(b1-4)GlcNAc(b1-6)[Gal(b1-4)GlcNAc(b1-3)]GalNAc
# How it was run: as §1
# Gal(b1-4)GlcNAc6P = target: Gal(b1-4)GlcNAc6P
# How it was run: as §1
# Gal(b1-6)Gal = target: Gal(b1-6)Gal
# How it was run: as §1
# Gal3S(b1-3)GalNAc = target: Gal3S(b1-3)GalNAc
# How it was run: as §1
# Gal3S(b1-3)GlcNAc = target: Gal3S(b1-3)GlcNAc
# How it was run: as §1
# [26] = target: Gal3S(b1-3)[Fuc(a1-4)]GlcNAc
# How it was run: as §1
# Gal3S(b1-4)Glc = target: Gal3S(b1-4)Glc
# How it was run: as §1
# Gal3S(b1-4)Glc6S = target: Gal3S(b1-4)Glc6S
# How it was run: as §1
# Gal3S(b1-4)GlcNAc = target: Gal3S(b1-4)GlcNAc
# How it was run: as §1
# [27] = target: Gal3S(b1-4)[Fuc(a1-3)]Glc6S
# How it was run: as §1
# [28] = target: Gal3S(b1-4)[Fuc(a1-3)]GlcNAc
# How it was run: as §1
# [29] = target: Gal3S(b1-4)[Fuc(a1-3)]GlcNAc6S
# How it was run: as §1
# Gal3S4S(b1-4)GlcNAc = target: Gal3S4S(b1-4)GlcNAc
# How it was run: as §1
# Gal3S6S(b1-4)GlcNAc = target: Gal3S6S(b1-4)GlcNAc
# How it was run: as §1
# Gal3S6S(b1-4)GlcNAc6S = target: Gal3S6S(b1-4)GlcNAc6S
# How it was run: as §1
# Gal4S(b1-4)GlcNAc = target: Gal4S(b1-4)GlcNAc
# How it was run: as §1
# Gal4S6S(b1-4)GlcNAc = target: Gal4S6S(b1-4)GlcNAc
# How it was run: as §1
# Gal6P(b1-4)GlcNAc = target: Gal6P(b1-4)GlcNAc
# How it was run: as §1
# Gal6S(b1-3)GlcNAc = target: Gal6S(b1-3)GlcNAc
# How it was run: as §1
# Gal6S(b1-3)GlcNAc6S = target: Gal6S(b1-3)GlcNAc6S
# How it was run: as §1
# Gal6S(b1-4)Glc = target: Gal6S(b1-4)Glc
# How it was run: as §1
binder,measurement,setting,value
Microvirin-2 (Microcystis aeruginosa) (protein) MPNFSHTCSSINYDPDSTILSAECQARDGEWLPTELRLSDHIGNIDGELQFGDQNFQETCQDCHLEFGDGEQSVWLVCTCQTMDGEWKSTQILLDSQIDNNDSQLEIGGSMPNFSHTCSSINYDPDSTILSAECQARDGEWLPTELRLSDHIGNIDGELQFGDQNFQETCQDCHLEFGDGEQSVWLVCTCQTMDGEWKSTQILLDSQIDNNDSQLEIG,glycan array binding signal (z-score),[1],-0.042
same,glycan array binding signal (z-score),[2],-0.104
same,glycan array binding signal (z-score),[3],-0.146
same,glycan array binding signal (z-score),[4],-0.035
same,glycan array binding signal (z-score),[5],-0.085
same,glycan array binding signal (z-score),[6],-0.121
same,glycan array binding signal (z-score),[7],-0.115
same,glycan array binding signal (z-score),[8],-0.093
same,glycan array binding signal (z-score),[9],-0.112
same,glycan array binding signal (z-score),[10],-0.109
same,glycan array binding signal (z-score),[11],-0.087
same,glycan array binding signal (z-score),[12],-0.102
same,glycan array binding signal (z-score),[13],-0.108
same,glycan array binding signal (z-score),[14],0.024
same,glycan array binding signal (z-score),[15],0.029
same,glycan array binding signal (z-score),[16],-0.033
same,glycan array binding signal (z-score),[17],-0.114
same,glycan array binding signal (z-score),[18],-0.136
same,glycan array binding signal (z-score),[19],-0.139
same,glycan array binding signal (z-score),[20],-0.133
same,glycan array binding signal (z-score),[21],-0.129
same,glycan array binding signal (z-score),[22],-0.142
same,glycan array binding signal (z-score),[23],-0.133
same,glycan array binding signal (z-score),[24],-0.131
same,glycan array binding signal (z-score),[25],-0.138
same,glycan array binding signal (z-score),Gal(b1-4)GlcNAc6P,-0.139
same,glycan array binding signal (z-score),Gal(b1-6)Gal,-0.123
same,glycan array binding signal (z-score),Gal3S(b1-3)GalNAc,-0.139
same,glycan array binding signal (z-score),Gal3S(b1-3)GlcNAc,-0.138
same,glycan array binding signal (z-score),[26],-0.134
same,glycan array binding signal (z-score),Gal3S(b1-4)Glc,-0.134
same,glycan array binding signal (z-score),Gal3S(b1-4)Glc6S,-0.128
same,glycan array binding signal (z-score),Gal3S(b1-4)GlcNAc,-0.139
same,glycan array binding signal (z-score),[27],-0.122
same,glycan array binding signal (z-score),[28],-0.131
same,glycan array binding signal (z-score),[29],-0.13
same,glycan array binding signal (z-score),Gal3S4S(b1-4)GlcNAc,-0.131
same,glycan array binding signal (z-score),Gal3S6S(b1-4)GlcNAc,-0.134
same,glycan array binding signal (z-score),Gal3S6S(b1-4)GlcNAc6S,-0.12
same,glycan array binding signal (z-score),Gal4S(b1-4)GlcNAc,-0.139
same,glycan array binding signal (z-score),Gal4S6S(b1-4)GlcNAc,-0.143
same,glycan array binding signal (z-score),Gal6P(b1-4)GlcNAc,-0.134
same,glycan array binding signal (z-score),Gal6S(b1-3)GlcNAc,-0.137
same,glycan array binding signal (z-score),Gal6S(b1-3)GlcNAc6S,-0.144
same,glycan array binding signal (z-score),Gal6S(b1-4)Glc,-0.137

# Reference: the supplement of paper PMC8728848
